Assay results: PubChem BioAssay AID504339 (National Center for Advancing Translational Sciences (NCATS), 2011)
In all, about 390,000 compounds went through this assay and about 17,000 (4.4%) were called active. Inconclusive results, whose numbers are uncertain, are shown with a selection of clear calls. Calls come from the whole dose curve; as a rule, active = well fitted inhibition curve with a large enough effect; inconclusive = small, poorly fitted or top-dose-only effect; inactive = no such curve, though single readings can be large or run the other way. Where the call is inconclusive, the potency comes from a doubtful curve fit.

Molecular target: Lysine-specific demethylase 4A (Homo sapiens) (UniProt O75164)
Sequence of UniProt O75164 (O75164 whole entry, looked up, the tested form may be a part): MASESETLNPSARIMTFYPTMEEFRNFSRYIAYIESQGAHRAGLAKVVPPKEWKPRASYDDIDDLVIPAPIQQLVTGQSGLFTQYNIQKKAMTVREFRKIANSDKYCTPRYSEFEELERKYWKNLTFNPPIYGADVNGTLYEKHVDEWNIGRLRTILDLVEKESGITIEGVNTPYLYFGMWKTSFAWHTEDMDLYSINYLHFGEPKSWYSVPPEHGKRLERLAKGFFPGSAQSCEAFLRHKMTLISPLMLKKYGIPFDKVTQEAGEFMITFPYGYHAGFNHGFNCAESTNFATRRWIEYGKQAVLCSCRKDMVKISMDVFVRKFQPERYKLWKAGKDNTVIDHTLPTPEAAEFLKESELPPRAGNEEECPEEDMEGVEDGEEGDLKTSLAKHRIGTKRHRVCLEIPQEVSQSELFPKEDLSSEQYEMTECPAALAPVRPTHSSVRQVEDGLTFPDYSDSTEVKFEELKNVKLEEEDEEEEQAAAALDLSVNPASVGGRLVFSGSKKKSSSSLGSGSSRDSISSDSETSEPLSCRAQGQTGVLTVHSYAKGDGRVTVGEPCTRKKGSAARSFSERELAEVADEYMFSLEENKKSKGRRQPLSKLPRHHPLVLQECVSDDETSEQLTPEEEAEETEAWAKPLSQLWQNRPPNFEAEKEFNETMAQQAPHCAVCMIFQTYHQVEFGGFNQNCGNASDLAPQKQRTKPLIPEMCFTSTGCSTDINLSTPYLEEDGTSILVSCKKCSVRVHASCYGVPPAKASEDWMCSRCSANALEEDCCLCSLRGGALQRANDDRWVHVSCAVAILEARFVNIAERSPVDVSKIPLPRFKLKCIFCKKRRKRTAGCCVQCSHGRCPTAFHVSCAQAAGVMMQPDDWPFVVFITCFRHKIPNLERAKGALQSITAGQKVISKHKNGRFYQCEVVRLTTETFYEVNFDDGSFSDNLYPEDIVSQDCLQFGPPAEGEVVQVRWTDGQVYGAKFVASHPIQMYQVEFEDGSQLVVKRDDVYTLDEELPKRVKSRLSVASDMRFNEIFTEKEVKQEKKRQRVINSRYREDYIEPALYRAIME
Test: qHTS Assay for Inhibitors of JMJD2A-Tudor Domain; note: nearly all actives have a fitted effect of over 50% in size
Details: AlphaScreen JMJD2A-Tudor / H3K4me3 peptide binding; series mostly up to 114 µM
Potency is the fitted concentration of half-maximal effect; tags give direction and shape of the fitted curve.

Row | Compound | Potency
1 | Cc1occc1-c1nnc(SCC(=O)c2c[nH]c3ccccc23)n1C | active: 56.2 µM
2 | O=C(c1cn[nH]c1)N1CCc2c([nH]c3ccccc23)C1c1c(F)cccc1Cl (stereo unspecified) | inconclusive: 35.5 µM [inhibitor, full curve]
3 | O=S(=O)(c1ccc(-c2csc(=Nc3ccccc3)n2CCCN2CCOCC2)cc1)N1CCOCC1 | inconclusive: 56.2 µM [inhibitor, partial curve]
4 | COc1cc(/C=N/Nc2ccccc2[N+](=O)[O-])ccc1OC(=O)c1ccccc1F | inconclusive: 3.55 µM [inhibitor, full curve]
5 | O=C(/C=C/c1ccco1)NC(=S)Nc1cccc(-c2nc3ccccc3o2)c1 | active: 50.1 µM
6 | COc1ccc(N=Cc2nc(-c3ccccc3)oc2OC(=O)c2ccccc2)cc1 | inactive
7 | CC(=O)c1ccc(NC(=S)NNC(=O)c2ccccc2[N+](=O)[O-])cc1 | inactive
8 | Cc1c(/C=C/C(=O)c2cccs2)cnn1C | active: 28.2 µM
9 | CN(C)CCN=c1cc(-c2ccccc2)oc2ccc(Cl)cc12 | inconclusive: 0.708 µM [inhibitor, full curve, poor fit]
10 | O=C(Oc1cc(=O)oc2ccccc12)c1ccco1 | inconclusive: 89.1 µM [inhibitor, single point]
11 | Cn1c(=O)n(Cc2ccc(F)cc2)c(=O)c2c1nc1n2CCCN1Cc1ccccc1 | inconclusive: 50.1 µM [inhibitor, partial curve]
12 | COc1ccc(S(=O)(=O)n2nc(C)c(S(=O)(=O)N3CCCCCC3)c2C)cc1OC | inconclusive: 89.1 µM [inhibitor, single point]
13 | C/C(=N\NC(=S)NCCc1ccccc1)c1cccs1 | inconclusive: 70.8 µM [inhibitor, single point]
14 | COc1ccc(C2CC(C)(c3ccc(OC)cc3)Nc3ccccc3N2)cc1 (stereo unspecified) | inconclusive: 22.4 µM [inhibitor, full curve]
15 | CCOC(=O)c1c(C)oc2ncnc(NCCCN3CCN(c4cc(C)ccc4C)CC3)c12 | inconclusive: 39.8 µM [inhibitor, partial curve]
16 | C=CCNC(=O)CSc1nc2scc(-c3ccco3)c2c(=O)n1CC=C | inconclusive: 20 µM [inhibitor, full curve, poor fit]
17 | Fc1ccccc1Sc1ccccc1CNC1=NCCN1 | inconclusive: 39.8 µM [inhibitor, single point]
18 | CCOc1ccc(N=C(NN)c2ccc3ccccc3n2)cc1 | active: 50.1 µM
19 | CC(=O)Nc1cccc2cc(O)ccc12 | inconclusive: 89.1 µM [inhibitor, partial curve]
20 | CC1CN(C(=O)Nc2ccc3c(c2)OCCO3)CC(C)O1 (stereo unspecified) | inactive
21 | O=C(NCCN1CCc2ccccc2C1)C1CCN(S(=O)(=O)N2CCCCC2)CC1 | inconclusive: 89.1 µM [inhibitor, single point]
22 | CC(=O)Nc1ccc(Nc2c3c4c(cccc4n(C)c2=O)C(=O)c2ccccc2-3)cc1 | inconclusive: 2.51 µM [inhibitor, full curve, poor fit]
23 | COC(=O)CC/C(O)=C1\C(=O)CC(C)(C)CC1=NCCc1nc2ccccc2[nH]1 | inconclusive: 22.4 µM [inhibitor, full curve, poor fit]
24 | CCc1nc2oc3cc(OC)ccc3c(=O)c2c(=O)n1-c1ccccc1 | inconclusive: 100 µM [inhibitor, partial curve]

Row | Compound | Potency
25 | Cc1[nH]n2c(=O)c(C#N)c(-c3ccccc3)nc2c1-c1ccccc1 | inconclusive: 56.2 µM [inhibitor, partial curve]
26 | CCC1CCCCN1CCCNC(=O)c1ccc2c(c1)N(Cc1cccc(C)c1)C(=O)c1ccccc1S2(=O)=O (stereo unspecified) | inactive
27 | CN1CCc2nc(NC(=O)c3cccc(S(=O)(=O)N4CCc5ccccc54)c3)sc2C1 | inconclusive: 79.4 µM [inhibitor, single point]
28 | Cc1ccc(C)c(N2CCN(C(=O)C(C)n3nc(C)c4sc5ccccc5c4c3=O)CC2)c1 (stereo unspecified) | inconclusive: 89.1 µM [inhibitor, partial curve]
29 | CCN(CC)C(=O)Cn1cc(S(=O)(=O)CC(=O)Nc2cc(C)on2)c2ccccc21 | inactive
30 | O=S(=O)(c1cccc(C(F)(F)F)c1)N1CCN(c2nc(-c3cccs3)nc3cc(Cl)ccc23)CC1 | inactive
31 | CC(=O)c1c(OC(=O)c2cccc(Cl)c2)c2ccccc2n1C | inconclusive: 28.2 µM [inhibitor, single point]
32 | COc1cccc(NC(=O)Cn2c3ccc(F)cc3c3nc4n(c(=O)c32)CCCS4)c1 | inactive
33 | COC(=O)c1ccc(NC(=O)N2CCc3c([nH]c4ccccc34)C2c2ccc(C)cc2)cc1 (stereo unspecified) | inconclusive: 25.1 µM [inhibitor, partial curve]
34 | CCN(CC)CCNC(=O)CCCCn1c(=S)[nH]c2c([nH]c3ccc(OC)cc32)c1=O | active: 3.98 µM
35 | CCc1cccc2c(C(=S)N3CCCC3)c[nH]c12 | inactive
36 | S=c1[nH]nc(-c2cccs2)n1/N=C/c1cccs1 | active: 10 µM
37 | Cn1c(=O)[nH]c(=O)c2c1nc(N/N=C/C(Br)=C/c1ccccc1)n2CCO | inconclusive: 22.4 µM [inhibitor, full curve]
38 | O=C(Cc1ccccc1[N+](=O)[O-])N1CCOCC1 | inactive
39 | Cc1cccc(-n2c(SCC(=O)Nc3ccccc3Cl)nc3n[nH]c(C)c3c2=N)c1 | inactive
40 | CSCC[C@H](NC(=O)N1CCn2c1nc1ccccc12)C(=O)NCc1ccco1 | active: 44.7 µM
41 | CC1CCC(C(C)C)C2=C1C(C#N)(C#N)C(C#N)(C#N)C(c1ccccc1)N2 (stereo unspecified) | inconclusive: 56.2 µM [inhibitor, partial curve]
42 | CNC(=S)N(Cc1ccco1)Cc1cc2cc3c(cc2[nH]c1=O)OCCO3 | inactive
43 | CCOc1ccc(Nc2c(S(=O)(=O)c3ccc(C)cc3)cnc3ccc(OC)cc23)cc1 | inconclusive: 14.1 µM [inhibitor, full curve, poor fit]
44 | CN(CC(=O)Nc1ccc(F)cc1)C(=O)COc1ccc(C(=O)c2ccccc2)cc1 | inconclusive: 22.4 µM [inhibitor, full curve]
45 | O=C(COC(=O)C1CC2CCCC(C1)C2=O)c1cccc(Br)c1 (stereo unspecified) | inactive
46 | COC(=O)CCCC(=O)N1CCC(CO)(CCc2ccccc2)CC1 | inactive
47 | Cc1ccc2c(c1)N(C(=O)N1CCC(C(=O)NC3CCCCCC3)CC1)CCO2 | inactive
48 | CCn1c(SCC(=O)O)nc2sc3c(c2c1=O)CCC3 | inconclusive: 79.4 µM [inhibitor, single point]

Row | Compound | Potency
49 | CC1=NN(c2ccccc2)C(=O)/C1=C/c1ccc[nH]1 | active: 15.8 µM
50 | O=c1cc(CO)oc(C(Nc2ccccn2)c2cccc(F)c2)c1O (stereo unspecified) | active: 20 µM
51 | COc1ccc(C)cc1S(=O)(=O)NC(C)C(=O)NC1CC1 (stereo unspecified) | inactive
52 | CCC(Oc1ccccc1)C(=O)NC1C(=O)N2C1SC(C)(C)C2C(=O)O (stereo unspecified) | inactive
53 | COc1ccc(CNc2ccccc2C(=O)NCc2ccccc2)cc1COc1ccc(NC(C)=O)cc1 | inconclusive: 63.1 µM [inhibitor, partial curve, poor fit]
54 | Cc1cccc(C)c1NC(=O)CSCC(=O)c1ccc(O)c(O)c1 | inconclusive: 3.98 µM [inhibitor, full curve]
55 | CCN(CC)S(=O)(=O)c1ccc(C(=O)NCc2n[nH]c(=S)n2-c2ccccc2OC)cc1 | active: 22.4 µM
56 | CCOc1cc([N+](=O)[O-])cc(/C=N/NC(=O)c2c(-c3ccccc3)noc2C)c1O | active: 79.4 µM
57 | CC1CCN(C(c2ccc(N(C)C)cc2)c2nnnn2Cc2ccccc2)CC1 (stereo unspecified) | active: 50.1 µM
58 | COc1ccc(C(=O)c2nc3c(n2O)CCCCC3)cc1 | inconclusive: 20 µM [inhibitor, full curve]
59 | CN(C)S(=O)(=O)c1ccc(NC(=O)CN2CCCc3ccccc32)cc1 | inconclusive: 39.8 µM [inhibitor, partial curve]
60 | COc1ccc(C2=NN(C(=O)CSc3nccn3C)C(c3ccco3)C2)cc1 (stereo unspecified) | inconclusive: 22.4 µM [inhibitor, partial curve]
61 | COc1ccccc1N1CCN(C2CCCN(S(=O)(=O)c3cccc(Cl)c3)C2)CC1 (stereo unspecified) | inconclusive: 56.2 µM [inhibitor, partial curve]
62 | CCOC(=O)C1=C(C)OC(N)=C(C#N)C1c1ccc(OC)c(CSc2ccccn2)c1 (stereo unspecified) | inconclusive: 50.1 µM [inhibitor, partial curve]
63 | O=C(NCCCN1CCOCC1)c1cc(-c2ccc(Cl)s2)nc2ccccc12 | inactive
64 | CCCCn1c(CN2CCN(c3cccc(Cl)c3)CC2)nc2c1c(=O)[nH]c(=O)n2C | inconclusive: 56.2 µM [inhibitor, partial curve, poor fit]
65 | COc1ccccc1CN1C[C@@H]2C[C@@H](c3ccccc3C)N3CCC[C@@]23C1=O | inactive
66 | CCCOC(=O)N[C@@H]1C(=O)N2C(C(=O)OCCC)=C(C)CS[C@H]12 | inactive
67 | Cc1cc(N2CCN(C)CC2)ccc1NC(=O)c1cccc(S(=O)(=O)N2CCc3ccccc3C2)c1 | inactive
68 | O=C(NC(=S)N1CCOCC1)c1cn(-c2ccccc2)nc1-c1ccccc1 | inactive
69 | CCCC(=O)N(Cc1cc(=O)[nH]c2ccccc12)c1ccccc1C | inconclusive: 89.1 µM [inhibitor, partial curve]
70 | Cc1ccc(Nc2c(-c3ccc(C)s3)nc3cccc(C)n23)cc1 | inconclusive: 31.6 µM [inhibitor, full curve]
71 | C[C@H](CO)N1C[C@H](C)[C@@H](CN(C)Cc2ccc3c(c2)OCO3)Oc2c(NC(=O)C3CCCCC3)cccc2C1=O | inconclusive: 56.2 µM [inhibitor, partial curve, poor fit]
